Assay results taken from PubChem BioAssay AID624418 (National Center for Advancing Translational Sciences (NCATS), 2012).
The whole screen tested about 410,000 compounds, of which about 530 (0.13%) were called active. The shares of active, inactive and inconclusive entries below differ from those in the screen. Calls follow the shape of the dose curve; as a rule, active = well fitted inhibition curve with a large enough effect; inconclusive = small, poorly fitted or top-dose-only effect, or another doubt; inactive = no such curve, though single readings can be large or run the other way. Where the call is inconclusive, the potency comes from a doubtful curve fit.
% is scaled to controls: 0 for no effect and ±100 for the full control effect; potency is read from the fitted curve at half-maximal effect.

Assay: qHTS of GLP-1 Receptor Inverse Agonists: Cytotox Screen
Settings: HEK293 cAMP-luciferase reporter cells, luminescence, 24 h; activity change, negative = inhibition: at 38.3 µM (top of the series) unless noted
Outline: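 Step one: seed cells (200 cells/uL, DMEM with 10% Nu serum, 1% pen-strep). Step two: 12-hour incubation at 37 deg C. Step three: pin 23 nL compound, incubate 24 hr. Step four: add luciferase reagent, read luminescence 12 min later.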
With CN(C)/N=C/c1ccc(P(c2ccc(/C=N/N(C)C)o2)c2ccc(/C=N/N(C)C)o2)o1 the Potency was inconclusive: 20 µM [inhibitor, single point].
With COc1cccc(NC(=O)Nc2ccc3nc(C)c(C)nc3c2)c1 the “activity change, negative = inhibition” value was inactive: -3.95%.
For Cc1ccc(S(=O)(=O)n2nc(OC(=O)c3cccc(F)c3)cc2N)cc1, the “activity change, negative = inhibition” value was inactive: -12.8%.
With Cc1sc(NC(=O)C2C3CCC(O3)C2C(=O)O)nc1-c1ccc(CC(C)C)cc1 (stereo not given) the Potency was inconclusive: 10 µM [inhibitor, single point].
With CC(/C=C/c1ccccc1)=N\NC(=O)c1ccc(Br)cc1 the “activity change, negative = inhibition” value was inactive: 16.1%.
In the case of O=C1CCCCC/C1=N/Nc1ccc(OCc2ccccc2)cc1, the Potency is reported as inconclusive: 2.51 µM [inhibitor, full curve].
With Cn1c(=S)n(/N=C/c2cccs2)c2ccccc21 the Potency was inconclusive: 15.8 µM [inhibitor, single point].
In the case of COc1ccc(N=Nc2c(C)[nH][nH]c2=O)cc1, the Potency is reported as inconclusive: 12.6 µM [inhibitor, partial curve, poor fit].
With Cc1ccccc1/C(N)=N/OC(=O)c1cccs1 the Potency was inconclusive: 10 µM [inhibitor, partial curve].
In the case of CCOc1cc2[nH]c(=O)n(CCCCC(=O)N3CCN(c4cccc(Cl)c4)CC3)c(=O)c2cc1OCC, the “activity change, negative = inhibition” value is reported as inactive: -3.51%.
In the case of Cc1ccccc1C(=O)NC(=S)Nc1ccccc1[N+](=O)[O-], the Potency is reported as inconclusive: 28.2 µM [inhibitor, single point].
In the case of C=CC[C@@H](CC(=O)N(CCO)Cc1ccccc1)C(=O)N[C@H](COC(=O)[C@@H](CC=C)CC(=O)OC(C)(C)C)C(C)(C)C, the Potency is reported as inconclusive: 10 µM [inhibitor, partial curve, poor fit].
For C#CCOCCOCCOCCNc1nc(N2CCN(C(=O)[C@H](CCCCN)n3cc(CC(C)O)nn3)CC2)nc(N2CCN(C(=O)[C@H](Cc3ccc(O)cc3)n3cc(CCO)nn3)CC2)n1 (stereo not given in full), the “activity change, negative = inhibition” value was inactive: 1.52%.
For CCC(=O)Nc1cccc(C(=O)/C=C/c2ccccc2)c1, the Potency was inconclusive: 6.31 µM [inhibitor, partial curve].
With CC(=O)/C(=C/c1ccccc1)C(=O)Nc1ccccc1C the Potency was inconclusive: 17.8 µM [inhibitor, partial curve, poor fit].
In the case of Cc1ccc(NC(=O)/C(C#N)=N/Nc2ccc(C(=O)O)cc2)c(C)c1, the Potency is reported as inconclusive: 28.2 µM [inhibitor, single point].
In the case of CCS(=O)(=O)N1CCN(c2cccc(C)c2C)CC1, the Potency is reported as inconclusive: 12.6 µM [inhibitor, single point].
For CN(CC(=O)N1CCCCCC1)S(=O)(=O)c1cccc2cccnc12, the Potency was inconclusive: 5.62 µM [inhibitor, full curve, poor fit].
For CCOC(=O)c1c(NC(=O)c2ccc(S(=O)(=O)N3CCC(C)CC3)cc2)sc2c1CCN(CC)C2, the “activity change, negative = inhibition” value was inactive: 2.95%.
In the case of CCOC(=O)c1cc(C)n(CC2CCC(C(=O)Nc3cccc(C)c3)CC2)c1C (stereo not given), the “activity change, negative = inhibition” value is reported as inactive: -12.7%.
For COC(=O)c1ccc(NC(=O)CSCc2ccccc2C)cc1, the “activity change, negative = inhibition” value was inactive: 2.77%.
In the case of Cc1noc(NS(=O)(=O)c2ccc(NC(=O)CSc3ncccn3)cc2)c1C, the Potency is reported as inconclusive: 0.501 µM [inhibitor, full curve, poor fit].
For Cc1cccc(-n2cc(CN(C)Cc3nccn3C)c(-c3cccc(F)c3)n2)c1, the Potency was inconclusive: 22.4 µM [inhibitor, single point].
For CNC(=S)N/N=C(\C)c1ccc2c(c1)OCCO2, the Potency was inconclusive: 28.2 µM [inhibitor, single point].
For Cc1ccc(N(c2ncnc(N)c2[N+](=O)[O-])C2CCCCC2)cc1, the “activity change, negative = inhibition” value was inactive: -13.2%.
In the case of Cc1cc(C)nc(/N=C(\N)Nc2cccc(OCc3ccccc3)c2)n1, the Potency is reported as inconclusive: 28.2 µM [inhibitor, single point].
With CCOC(=O)N1CCN(C(=O)CNC(=O)c2ccc(Br)cc2)CC1 the “activity change, negative = inhibition” value was inactive: 4.4%.
For C=CS(=O)(=O)c1ccc(Oc2ccc(S(=O)(=O)C=C)cc2)cc1, the Potency was inconclusive: 3.16 µM [inhibitor, full curve, poor fit].
In the case of Cc1nc2ccccn2c1C(=O)N/N=C/c1ccc2c(c1)OCO2, the Potency is reported as inconclusive: 28.2 µM [inhibitor, single point].
In the case of CCCn1c(C)cc(C(=O)CN2C(=O)c3cccc(N)c3C2=O)c1C, the “activity change, negative = inhibition” value is reported as inactive: 50%.
In the case of CCCCCOC(=O)C1C(c2ccccc2)C(C(=O)O)C1c1ccccc1 (stereo not given), the Potency is reported as inconclusive: 28.2 µM [inhibitor, single point].
With Cc1ccc(C2=Nc3ccccc3N(CC(=O)Nc3ccccc3F)C(=O)C2)cc1C the “activity change, negative = inhibition” value was inactive: -8.84%.
With CCN1CCN(C(=S)Nc2ccc3nc(N4CCN(C)CC4)cc(C)c3c2)CC1 the Potency was inconclusive: 12.6 µM [inhibitor, single point].
For N#CC(c1ccncc1)(c1ncc(C(F)(F)F)cc1Cl)N1CCOCC1 (stereo not given), the Potency was inconclusive: 11.2 µM [inhibitor, single point].
In the case of CC1(C)CC(=O)c2cc(OCC(=O)O)ccc2O1, the “activity change, negative = inhibition” value is reported as inactive: 17.1%.
With CCCn1c2ccccc2c2cnn(CC(=O)NCc3ccccc3Cl)c(=O)c21 the “activity change, negative = inhibition” value was inactive: -13.6%.
For C=CCn1c(C)cc(-c2csc(NC(=O)C3=COCCO3)n2)c1C, the “activity change, negative = inhibition” value was inactive: 7.43%.
For COc1cc(OC)c(NC(=O)C2CCN(C(=O)c3sc4nc[nH]c(=O)c4c3C)CC2)cc1Cl, the Potency was inconclusive: 12.6 µM [inhibitor, partial curve, poor fit].
In the case of Oc1[nH]c2ccccc2c1C=Nc1ccc2c(c1)OCCO2, the Potency is reported as inconclusive: 14.1 µM [inhibitor, single point].
With COc1ccc(S(=O)(=O)N2CCC[C@H]2C(=O)NC2=NCCS2)cc1 the “activity change, negative = inhibition” value was inactive: 2.93%.
In the case of COc1ccc(C(=O)NCC(c2ccco2)N2CCc3ccccc32)c(OC)c1 (stereo not given), the “activity change, negative = inhibition” value is reported as inactive: -2.34%.
In the case of O=C(c1cc2c(s1)CCCC2)N1CCN(Cc2ccc3c(c2)OCO3)CC1, the “activity change, negative = inhibition” value is reported as inactive: -25.3%.
With Cc1ccc(N=Nc2c(N)[nH]n3c(=O)cc(C)nc23)cc1 the Potency was inconclusive: 28.2 µM [inhibitor, single point].
With COc1ccc(CNC(=O)CCc2cn(C)c3ccccc23)cc1 the “activity change, negative = inhibition” value was inactive: 7.3%.
With CS/C(N)=N/C(=S)Nc1cccc(Cl)c1 the Potency was inconclusive: 28.2 µM [inhibitor, single point].
